These are yes or no findings as the source states them, for the method shown. In cells and extracts the contact can be indirect. Some results given as binding are weak or reduced against the parent protein; the word gives no strength. For some of these results: Tags and fused reporters may be left off the sequences shown.

By UniProt entry, the sequences of proteins in these tests, tags left out.
UniProt Q15717: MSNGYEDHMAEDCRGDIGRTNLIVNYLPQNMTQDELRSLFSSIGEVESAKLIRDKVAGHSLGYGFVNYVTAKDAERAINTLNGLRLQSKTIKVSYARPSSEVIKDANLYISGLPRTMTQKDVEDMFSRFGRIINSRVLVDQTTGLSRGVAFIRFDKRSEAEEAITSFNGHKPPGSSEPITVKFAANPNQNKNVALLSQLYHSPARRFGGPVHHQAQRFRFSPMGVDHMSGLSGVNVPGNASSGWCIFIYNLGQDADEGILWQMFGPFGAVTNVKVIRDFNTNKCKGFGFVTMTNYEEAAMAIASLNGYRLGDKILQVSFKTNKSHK

The record followed here is PMC11791083.

Assay [1] concerns the target T1, heterogeneous nuclear ribonucleoprotein M, C-terminally GFP-tagged (hnRNPM-GFP) (human) (UniProt P52272).
T1 sequence: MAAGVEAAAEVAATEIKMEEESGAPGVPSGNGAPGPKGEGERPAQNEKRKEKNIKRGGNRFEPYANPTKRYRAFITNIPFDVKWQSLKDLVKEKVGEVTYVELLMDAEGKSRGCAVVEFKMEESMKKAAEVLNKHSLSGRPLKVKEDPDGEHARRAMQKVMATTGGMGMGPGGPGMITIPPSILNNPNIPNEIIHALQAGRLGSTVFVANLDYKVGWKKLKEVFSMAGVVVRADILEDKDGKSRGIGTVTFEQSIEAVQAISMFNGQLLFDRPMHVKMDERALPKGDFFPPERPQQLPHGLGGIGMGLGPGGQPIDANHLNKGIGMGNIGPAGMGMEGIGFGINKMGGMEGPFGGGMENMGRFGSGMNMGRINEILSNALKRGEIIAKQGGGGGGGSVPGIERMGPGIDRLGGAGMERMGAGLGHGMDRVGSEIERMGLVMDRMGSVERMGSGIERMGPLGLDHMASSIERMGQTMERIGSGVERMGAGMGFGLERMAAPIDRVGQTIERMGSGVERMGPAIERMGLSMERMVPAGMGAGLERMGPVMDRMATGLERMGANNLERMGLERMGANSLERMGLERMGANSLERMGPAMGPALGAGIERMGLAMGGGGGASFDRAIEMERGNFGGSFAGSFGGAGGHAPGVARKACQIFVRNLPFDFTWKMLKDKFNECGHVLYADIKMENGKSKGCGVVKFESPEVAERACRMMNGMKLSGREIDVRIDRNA
The experiment in a line: co-IP; GFP-Trap magnetic agarose on lysates of THP-1 cells expressing hnRNPM-GFP or GFP, non-stimulated or pDNA-stimulated (0.1 µg/ml, 3 h); TAP lysis buffer, 4 °C overnight; IPs with or without RNase A (100 µg/ml, 1.5 h); immunoblot. (In western blotting, separated proteins are transferred to a membrane and probed.)

In assay [2] the target is ELAV-like protein 1, FLAG-tagged (ELAVL1-FLAG) (human) (UniProt Q15717). In words: co-IP; anti-FLAG M2 magnetic beads on lysates of HEK293FT cells transfected with ELAVL1-FLAG or WT cells; 4 °C overnight; IPs with or without RNase A (100 µg/ml, 1.5 h); elution with 3x FLAG peptide; immunoblot.
The target of assay [3] is T2, heterogeneous nuclear ribonucleoprotein M, C-terminally GFP-tagged (hnRNPM-GFP) (human), P52272.
T2 chain: T1 sequence
The experiment in a line: co-IP; GFP-Trap magnetic agarose on lysates of THP-1 cells expressing hnRNPM-GFP or GFP, non-stimulated or pDNA-stimulated (0.1 µg/ml, 3 h); TAP lysis buffer, 4 °C overnight; IPs with or without RNase A (100 µg/ml, 1.5 h); immunoblot. The settings on record: remark: other sources report otherwise.

B1: IκB kinase β (IKKβ), endogenous in THP-1 (protein, UniProt O14920 1-756)
chain: MSWSPSLTTQTCGAWEMKERLGTGGFGNVIRWHNQETGEQIAIKQCRQELSPRNRERWCLEIQIMRRLTHPNVVAARDVPEGMQNLAPNDLPLLAMEYCQGGDLRKYLNQFENCCGLREGAILTLLSDIASALRYLHENRIIHRDLKPENIVLQQGEQRLIHKIIDLGYAKELDQGSLCTSFVGTLQYLAPELLEQQKYTVTVDYWSFGTLAFECITGFRPFLPNWQPVQWHSKVRQKSEVDIVVSEDLNGTVKFSSSLPYPNNLNSVLAERLEKWLQLMLMWHPRQRGTDPTYGPNGCFKALDDILNLKLVHILNMVTGTIHTYPVTEDESLQSLKARIQQDTGIPEEDQELLQEAGLALIPDKPATQCISDGKLNEGHTLDMDLVFLFDNSKITYETQISPRPQPESVSCILQEPKRNLAFFQLRKVWGQVWHSIQTLKEDCNRLQQGQRAAMMNLLRNNSCLSKMKNSMASMSQQLKAKLDFFKTSIQIDLEKYSEQTEFGITSDKLLLAWREMEQAVELCGRENEVKLLVERMMALQTDIVDLQRSPMGRKQGGTLDDLEEQARELYRRLREKPRDQRTEGDSQEMVRLLLQAIQSFEKKVRVIYTQLSKTVVCKQKALELLPKVEEVVSLMNEDEKTVVRLQEKRQKELWNLLKIACSKVRGPVSGSPDSMNASRLSQPGQLMSQPSTASNSLPEPAKKSEELVAEAHNLCTLLENAIQDTVREQDQSFTALDWSWLQTEEEEHSCLEQAS
Take B1: the binding result in assay [1] is recorded as “binds”.

B2: heterogeneous nuclear ribonucleoprotein M (hnRNPM), endogenous in HEK293FT (protein, UniProt P52272 1-730)
chain: T1 sequence
For B2, the binding result in assay [2] is “binds”.

B3: TANK-binding kinase 1 (TBK1), endogenous in THP-1, Q9UHD2 1-729 (protein)
chain: MQSTSNHLWLLSDILGQGATANVFRGRHKKTGDLFAIKVFNNISFLRPVDVQMREFEVLKKLNHKNIVKLFAIEEETTTRHKVLIMEFCPCGSLYTVLEEPSNAYGLPESEFLIVLRDVVGGMNHLRENGIVHRDIKPGNIMRVIGEDGQSVYKLTDFGAARELEDDEQFVSLYGTEEYLHPDMYERAVLRKDHQKKYGATVDLWSIGVTFYHAATGSLPFRPFEGPRRNKEVMYKIITGKPSGAISGVQKAENGPIDWSGDMPVSCSLSRGLQVLLTPVLANILEADQEKCWGFDQFFAETSDILHRMVIHVFSLQQMTAHKIYIHSYNTATIFHELVYKQTKIISSNQELIYEGRRLVLEPGRLAQHFPKTTEENPIFVVSREPLNTIGLIYEKISLPKVHPRYDLDGDASMAKAITGVVCYACRIASTLLLYQELMRKGIRWLIELIKDDYNETVHKKTEVVITLDFCIRNIEKTVKVYEKLMKINLEAAELGEISDIHTKLLRLSSSQGTIETSLQDIDSRLSPGGSLADAWAHQEGTHPKDRNVEKLQVLLNCMTEIYYQFKKDKAERRLAYNEEQIHKFDKQKLYYHATKAMTHFTDECVKKYEAFLNKSEEWIRKMLHLRKQLLSLTNQCFDIEEEVSKYQEYTNELQETLPQKMFTASSGIKHTMTPIYPSSNTLVEMTLGMKKLKEEMEGVVKELAENNHILERFGSLTMDGGLRNVDCL
Consider B3, for which the binding result in assay [3] is “binds”.

B4: TANK-binding kinase 1 (TBK1), endogenous in HEK293FT (protein, UniProt Q9UHD2 1-729)
chain: B3 chain
B4: the binding result in assay [2] is on record as “binds”.

B5: IκB kinase ε (IKKε), endogenous in THP-1 (protein, UniProt Q14164 1-716)
chain: MQSTANYLWHTDDLLGQGATASVYKARNKKSGELVAVKVFNTTSYLRPREVQVREFEVLRKLNHQNIVKLFAVEETGGSRQKVLVMEYCSSGSLLSVLESPENAFGLPEDEFLVVLRCVVAGMNHLRENGIVHRDIKPGNIMRLVGEEGQSIYKLTDFGAARELDDDEKFVSVYGTEEYLHPDMYERAVLRKPQQKAFGVTVDLWSIGVTLYHAATGSLPFIPFGGPRRNKEIMYRITTEKPAGAIAGAQRRENGPLEWSYTLPITCQLSLGLQSQLVPILANILEVEQAKCWGFDQFFAETSDILQRVVVHVFSLSQAVLHHIYIHAHNTIAIFQEAVHKQTSVAPRHQEYLFEGHLCVLEPSVSAQHIAHTTASSPLTLFSTAIPKGLAFRDPALDVPKFVPKVDLQADYNTAKGVLGAGYQALRLARALLDGQELMFRGLHWVMEVLQATCRRTLEVARTSLLYLSSSLGTERFSSVAGTPEIQELKAAAELRSRLRTLAEVLSRCSQNITETQESLSSLNRELVKSRDQVHEDRSIQQIQCCLDKMNFIYKQFKKSRMRPGLGYNEEQIHKLDKVNFSHLAKRLLQVFQEECVQKYQASLVTHGKRMRVVHETRNHLRLVGCSVAACNTEAQGVQESLSKLLEELSHQLLQDRAKGAQASPPPIAPYPSPTRKDLLLHMQELCEGMKLLASDLLDNNRIIERLNRVPAPPDV
With B5, the binding result in assay [1] is given as “binds”.

B6: IRF3 phosphorylated at Ser396 (pIRF3-Ser396), endogenous in THP-1 (protein, UniProt Q14653 1-427)
chain: MGTPKPRILPWLVSQLDLGQLEGVAWVNKSRTRFRIPWKHGLRQDAQQEDFGIFQAWAEATGAYVPGRDKPDLPTWKRNFRSALNRKEGLRLAEDRSKDPHDPHKIYEFVNSGVGDFSQPDTSPDTNGGGSTSDTQEDILDELLGNMVLAPLPDPGPPSLAVAPEPCPQPLRSPSLDNPTPFPNLGPSENPLKRLLVPGEEWEFEVTAFYRGRQVFQQTISCPEGLRLVGSEVGDRTLPGWPVTLPDPGMSLTDRGVMSYVRHVLSCLGGGLALWRAGQWLWAQRLGHCHTYWAVSEELLPNSGHGPDGEVPKDKEGGVFDLGPFIVDLITFTEGSGRSPRYALWFCVGESWPQDQPWTKRLVMVKVVPTCLRALVEMARVGGASSLENTVDLHISNSHPLSLTSDQYKAYLQDLVEGMDFQGPGES
modifications: phosphoserine at 396
With B6, the binding result in assay [1] is “no binding”.

B7: interferon regulatory factor 3 (IRF3), endogenous in THP-1 (protein, UniProt Q14653 1-427)
chain: B6 chain
With B7, in assay [1], the binding result is recorded as “no binding”.
